The whole screen tested about 230,000 compounds, of which about 3,600 (1.6%) were called active. This list was built around the results that the source calls inconclusive (neither active nor inactive); the mix of calls is not that of the screen. The call rests on the fitted dose curve; in most records, active means well fitted inhibition curve with a large enough effect (not every such curve was filed as active); inconclusive means small, poorly fitted or top-dose-only effect, or another doubt; inactive means no such curve, though single readings can be large or run the other way. Where the call is inconclusive, the potency comes from a doubtful curve fit.
The molecules below were run against Lysine-specific demethylase 4E (Homo sapiens) (UniProt B2RXH2) (assay: qHTS Assay for Inhibitors of Human Jumonji Domain Containing 2E (JMJD2E)). Conditions: JMJD2E catalytic domain, FDH-coupled NADH fluorescence (FDH is formaldehyde dehydrogenase); series mostly up to 57.1 µM; activity change, negative = inhibition: at the top concentration.
Further: nearly all actives have a fitted effect of over 50% in size.
Potency means the concentration at half of the fitted maximal effect; tags describe the fitted curve by direction and shape.
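Wherever activity change, negative = inhibition is given: 0% = wells with enzyme and -100% = buffer wells without enzyme.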

Sequence of UniProt B2RXH2 (B2RXH2 whole entry, looked up, the tested form may be a part): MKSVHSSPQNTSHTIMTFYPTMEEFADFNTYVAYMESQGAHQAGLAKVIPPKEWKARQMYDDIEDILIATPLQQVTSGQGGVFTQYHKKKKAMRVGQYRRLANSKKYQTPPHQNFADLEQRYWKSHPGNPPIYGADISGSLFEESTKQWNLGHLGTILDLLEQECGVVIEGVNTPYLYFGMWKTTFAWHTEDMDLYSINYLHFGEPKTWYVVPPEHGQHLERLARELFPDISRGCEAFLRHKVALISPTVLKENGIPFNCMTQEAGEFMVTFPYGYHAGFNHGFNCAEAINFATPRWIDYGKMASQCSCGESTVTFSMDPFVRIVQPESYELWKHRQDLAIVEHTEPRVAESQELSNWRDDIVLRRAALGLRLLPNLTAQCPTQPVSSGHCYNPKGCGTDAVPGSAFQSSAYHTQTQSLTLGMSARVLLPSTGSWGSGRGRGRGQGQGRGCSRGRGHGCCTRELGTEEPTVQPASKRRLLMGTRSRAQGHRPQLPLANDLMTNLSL

| SMILES | activity change, negative = inhibition | Potency |
| --- | --- | --- |
| Cc1cccc(C(=O)Nc2nnc(SCC(=O)Nc3ccc4c(c3)oc3ccccc34)s2)c1 | inactive: -11.9% |  |
| CN(C)/C=C1\NC(=S)N(c2ccc(Cl)cc2)C1=O |  | inconclusive: 28.2 µM [inhibitor, single point] |
| Cc1ccccc1NC(=S)N/N=C1\CC(C)(C)Oc2ccc(O)cc21 |  | inconclusive: 12.6 µM [inhibitor, partial curve] |
| C/C(=N\NC(=O)c1sccc1-n1cccc1)c1cccs1 |  | inconclusive: 39.8 µM [inhibitor, single point] |
| COc1cccc(-c2cc(C(F)(F)F)nc(-n3cccn3)n2)c1 |  | inconclusive: 25.1 µM [inhibitor, partial curve] |
| Cc1cc(C)n2[nH]c(=O)c(N=Nc3ccccc3)c2n1 |  | inconclusive: 22.4 µM [inhibitor, single point] |
| CN(C)c1ccnc(Oc2ccc(C(C)(C)C)cc2)c1C#N | inactive: -24.7% |  |
| CC(=O)C1=NN(c2ccccc2)C(c2cccs2)N1c1ccccc1 (stereo not given) |  | inconclusive: 31.6 µM [inhibitor, single point] |
| Cn1c(C(=O)O)ccc1S(=O)(=O)N(Cc1ccccc1)Cc1ccccc1 | inactive: 2.7% |  |
| Cc1cc(C(C)(C)C)cc(C)c1Cn1c2[n+](c3ccc(C(F)(F)F)cc31)CCCCC2 | inactive: -26.9% |  |
| CCSc1ccc2cc(OC)ccc2[n+]1CC |  | inconclusive: 28.2 µM [inhibitor, partial curve] |
| CC1(OC(=O)C2CCCC2)C(=O)C=C2C=C(c3ccsc3)N(c3cccc(C#N)c3)C=C2C1=O (stereo not given) |  | inconclusive: 3.55 µM [inhibitor, single point] |
| Cc1ccc(S(=O)(=O)n2nc(-c3ccc(Cl)cc3)nc2NCc2ccco2)cc1 | inactive: 5.18% |  |
| CC(C)(C)NC(=O)C(c1cccnc1)N(C(=O)c1csnn1)c1ccccc1 (stereo not given) | inactive: 7.54% |  |
| Cc1ccc(C(=O)CNc2ccc(Cl)cc2)cc1 | inactive: -0.897% |  |
| CCOc1cccc(C=Nc2cc(C)cc(C)c2O)c1O |  | inconclusive: 3.16 µM [inhibitor, full curve] |
| CCOc1cc(CNc2ccc(O)cc2)cc(Br)c1OCc1ccccc1F |  | inconclusive: 5.62 µM [inhibitor, full curve] |
| Cc1nc2cc(NC(=O)N3CCN(c4ccccn4)CC3)ccc2o1 |  | inconclusive: 35.5 µM [inhibitor, single point] |
| COc1ccc(OC)c(-c2cc(C(=O)N3CCc4ccccc4C3)no2)c1 |  | inconclusive: 28.2 µM [inhibitor, partial curve] |
| CCCC(=O)OCCNc1cc(Sc2nc3ccccc3[nH]2)c2nonc2c1[N+](=O)[O-] |  | inconclusive: 35.5 µM [inhibitor, single point] |

Reference: PubChem BioAssay AID2147 (National Center for Advancing Translational Sciences (NCATS), 2009)
